Assay results reported in the supplement of paper PMC10126150.
Values marked as one replicate rest on one cluster of the flow cell; about a third of the high ones do not repeat.

tested on: ATP; assay: switch fluorescence ratio, 500 uM ATP over buffer (Cy3 cluster intensity, sum of 5 cycles each) (fold (ratio)); higher = stronger signal-on switching upon ATP binding; sequences stand for … in TCGTCGGCAGCGTCAGATGTGTATAAGAGACAGTTTTTTTTTTTTTTTTTTTTTTTTT…TC; settings: aptamer strand: ATP DNA aptamer (quencher-CACCTGGGGGAGTATTGCGGAGGAAGG + anchor), 100 nM annealed; ATP concentration: 500 uM; one replicate
How it was run: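 Between each of five buffer/ATP cycles, the flow-cell was stripped with NaOH and re-annealed. Each cycle imaged Cy3-labelled switching-strand clusters, annealed to 100 nM quencher-labelled ATP aptamer on a modified Illumina MiSeq flow-cell, first in selection buffer and then after 15 min with 500 uM ATP at 22 °C. The fluorescence ratio is summed target-cycle over summed buffer-cycle Cy3 intensity per cluster, averaged per switch-domain sequence, with clusters outside 100-1000 RFU excluded.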
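Also: ATP exposure 15 min at 22 °C before imaging.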

Sequence	switch fluorescence ratio
TAATACTATC	0.992
TAATACTCGA	1.07
TAATAGGAGG	0.997
TAATAGGCGT	0.984
TAATAGTT	0.974
TAATATCCTG	1
TAATCAGAGT	0.997
TAATCCAGG	1.24
TAATCCTGGT	1.06
TAATCCTTTT	0.998
TAATCGGTAT	0.978
TAATCTTATA	0.981
TAATGAATCC	1
TAATGATTTG	1.01
TAATGCTGGT	1
TAATGGGGA	1.02
TAATGGGTT	1.07
TAATGTACTA	1.07
TAATGTCGTT	0.955
TAATTAAAGA	0.984
TAATTAAGCG	1
TAATTAGCAA	1.89
TAATTCAATA	1.07
TAATTCAGAC	1.1
TAATTCATAC	1.27
TAATTCGAGG	0.977

Sequence	switch fluorescence ratio
TAATTCGCCG	1.03
TAATTCTATA	1.01
TAATTTAAT	1.02
TAATTTGGGC	0.957
TAATTTTGG	1.03
TAATTTTTA	0.998
TAATTTTTGA	0.994
TACAAACACG	1.21
TACAACGATT	0.998
TACAACTCGC	1.05
TACAAGAACA	1.03
TACAATGCTC	1.82
TACACTAGTC	0.94
TACACTTAAC	1.11
TACAGCGACT	1.1
TACAGGAGTC	0.98
TACAGGCCTG	1.01
TACAGGGAAT	1.03
TACAGGGCGG	1.03
TACAGGGGTT	1
TACAGGT	1.01
TACAGGTCTG	0.951
TACAGGTGTT	2.82
TACATACCAT	1.41
TACATCCTAG	0.987
TACATCTAGC	1.06

Sequence	switch fluorescence ratio
TACATCTATT	0.985
TACATCTCTT	0.977
TACATGAAA	1.02
TACATGAGTC	1.01
TACATGCGAT	1.12
TACATGTAC	1.2
TACATGTGAT	0.945
TACATTGG	1.03
TACATTTAGC	1.02
TACATTTTCT	0.986
TACCAATGTG	1.15
TACCACGACA	1.21
TACCACGCAT	1.52
TACCACTCGT	1.01
TACCAGTATG	0.971
TACCATCATT	0.994
TACCATGGGT	1.02
TACCATGTAT	1.04
TACCCCCGGA	1.24
TACCCCCTTT	1.06
TACCCGTAAC	1.37
TACCCTACTT	1.27
TACCCTCCCA	1.26
TACCGCCATG	1.2
TACCGCGTTT	0.967
TACCGCTATA	2.73

Sequence	switch fluorescence ratio
TACCGGAATT	1.04
TACCGGCAAT	1.88
TACCGGGGAC	1.1
TACCGTGCAG	1.16
TACCTCGTCT	0.986
TACCTCTCTA	1.01
TACCTTGCTC	2.81
TACCTTGGGG	1.01
TACCTTGTGG	1.07
TACGAACCAT	1.33
TACGAAGGA	0.98
TACGACACTT	1.46
TACGAGATTC	1.07
TACGATACGC	1.45
TACGCAAACC	3.6
TACGCAATTT	4.2
TACGCACCAT	1.45
TACGCAGGCC	1.7
TACGCATTCA	1.21
TACGCCGATT	1.06
TACGCGTAGA	1
TACGCTTCCG	1.06
TACGGACGAG	1.04
TACGGAGGCT	1.03
TACGGCCCGA	0.99
TACGGCCTAC	1.24

Sequence	switch fluorescence ratio
TACGGCTGTC	1.09
TACGGGATGA	1.05
TACGGTCTTG	1.02
TACGGTTGCG	0.99
TACGGTTTAA	1.04
TACGTAAAT	1.94
TACGTACGCG	1.39
TACGTCATCC	1.27
TACGTGATTG	1.07
TACGTGCTGC	0.963
TACGTGTGAA	1.05
TACGTTGTTT	1.03
TACTACAAAT	1.06
TACTAGGAA	1
TACTC	1
TACTCAGAG	1
TACTCCTTCT	1.1
TACTCGAA	1.01
TACTCGTCAA	1.89
TACTCTGTAC	1.47
TACTCTGTTG	1.01
TACTGGCTT	1.05
TACTGGTCAG	0.998
TACTGTACT	1.6
TACTGTAGAT	1.12
TACTGTTAAG	0.958

Sequence	switch fluorescence ratio
TACTGTTAGC	1.05
TACTTCATG	0.984
TACTTGTGGA	1.01
TACTTTGAAA	0.959
TAGAAAAG	1.01
TAGAAAATTC	1.07
TAGAAAGAT	1
TAGAAATCGA	1.01
TAGAACGCCG	1.02
TAGAACGTGG	0.984
TAGAAGGTAC	1.05
TAGAAGTAAT	0.988
TAGACCATAG	0.982
TAGACGACAG	0.897
TAGACGGAGT	1.05
TAGACGGCAT	0.98
TAGACGTCTC	0.976
TAGAGAAAAG	1
TAGAGAGATG	0.977
TAGAGATGT	0.978
TAGAGGATAA	0.976
TAGAGGCAG	0.971
TAGATAAGTC	0.948
TAGATACTCT	1.09
TAGATCAGTG	1.01
TAGATCCCGT	1.05

Sequence	switch fluorescence ratio
TAGATGAGGG	0.959
TAGATGATTC	1.02
TAGATGCCTC	1
TAGATGGAGA	0.97
TAGATGGTCA	1.04
TAGATTACTA	0.99
TAGATTAGAT	0.957
TAGCAAAGGC	1.19
TAGCAGATGT	1.01
TAGCAGTGTT	0.986
TAGCATATAA	1.39
TAGCCGGTGG	1.05
TAGCCGTACA	0.963
TAGCCGTTAT	0.98
TAGCCTTTCA	1
TAGCGCGCGA	0.956
TAGCGGATGG	0.935
TAGCGGTGCC	0.986
TAGCGTAATC	1.15
TAGCGTCCCT	1.04
TAGCGTGACA	1.03
TAGCTAAAGG	1.03
TAGCTCGACA	0.973
TAGCTGGTTT	0.966
TAGGAAATAT	1.03
TAGGACAAAG	0.965

Sequence	switch fluorescence ratio
TAGGACCACG	1.03
TAGGACCGGA	0.985
TAGGACCGGG	0.991
TAGGACTTAT	1.03
TAGGAGCTGC	1.23
TAGGAGGAAG	1.02
TAGGAGGAG	0.991
TAGGAGGCAT	1.02
TAGGAGTGAT	0.99
TAGGATCAAT	0.975
TAGGATCATA	1.03
TAGGATGGTC	0.942
TAGGATTATC	1
TAGGCCCGCC	0.964
TAGGCCTTCG	1.19
TAGGCCTTGC	1.06
TAGGCGCACT	1.03
TAGGCGCCTA	1.01
TAGGCGGCAA	1.33
